# Positions count from the first letter of the chain named. The list shows a part of the results.
# B1: CCGCAUG (DNA:RNA)
# RNA: GGGAGACCGGAAUUCAGAUUGUCCCCGCAUGUUAAAUCCCGUCGUAGCCACCA
# DNA 1: CAATCTGAATTCCGGTCTCCC
# DNA 2: TGGTGGCTACGACGGGATT
# B2: UCGGAAC (DNA:RNA)
# RNA: B1 RNA with C25U, C28G, U30A, G31C
# DNA 1: CAATCTGAATTCCGGTCTCCC
# DNA 2: TGGTGGCTACGACGGGATT
# B3: AAUUGAC (DNA:RNA)
# RNA: GGGAGACCGGAAUUCAGAUUGUCCAAUUGACUUAAAUCCCGUCGUAGCCACCA
# DNA 1: CAATCTGAATTCCGGTCTCCC
# DNA 2: TGGTGGCTACGACGGGATT
# B4: GUUCCAG (DNA:RNA)
# RNA: B3 RNA with A25G, A26U, U28C, G29C, C31G
# DNA 1: CAATCTGAATTCCGGTCTCCC
# DNA 2: TGGTGGCTACGACGGGATT
# B5: CGGCAGU (DNA:RNA)
# RNA: B1 RNA with C26G, U30G, G31U
# DNA 1: CAATCTGAATTCCGGTCTCCC
# DNA 2: TGGTGGCTACGACGGGATT
# B6: AGAAGUU (DNA:RNA)
# RNA: B3 RNA with A26G, U27A, U28A, A30U, C31U
# DNA 1: CAATCTGAATTCCGGTCTCCC
# DNA 2: TGGTGGCTACGACGGGATT
# B7: GAUCGCU (DNA:RNA)
# RNA: B3 RNA with A25G, U28C, A30C, C31U
# DNA 1: CAATCTGAATTCCGGTCTCCC
# DNA 2: TGGTGGCTACGACGGGATT
# B8: AAAACCA (DNA:RNA)
# RNA: B3 RNA with U27A, U28A, G29C, A30C, C31A
# DNA 1: CAATCTGAATTCCGGTCTCCC
# DNA 2: TGGTGGCTACGACGGGATT
# B9: AGGGCCG (DNA:RNA)
# RNA: B1 RNA with C25A, C26G, C28G, A29C, U30C
# DNA 1: CAATCTGAATTCCGGTCTCCC
# DNA 2: TGGTGGCTACGACGGGATT
# B10: ACUAGGA (DNA:RNA)
# RNA: B3 RNA with A26C, U28A, A30G, C31A
# DNA 1: CAATCTGAATTCCGGTCTCCC
# DNA 2: TGGTGGCTACGACGGGATT
# B11: CCGCUGA (DNA:RNA)
# RNA: B1 RNA with A29U, U30G, G31A
# DNA 1: CAATCTGAATTCCGGTCTCCC
# DNA 2: TGGTGGCTACGACGGGATT
# B12: AAUAUGU (DNA:RNA)
# RNA: B3 RNA with U28A, G29U, A30G, C31U
# DNA 1: CAATCTGAATTCCGGTCTCCC
# DNA 2: TGGTGGCTACGACGGGATT
# B13: UGUUAGU (DNA:RNA)
# RNA: B3 RNA with A25U, A26G, G29A, A30G, C31U
# DNA 1: CAATCTGAATTCCGGTCTCCC
# DNA 2: TGGTGGCTACGACGGGATT
# B14: UCCACAU (DNA:RNA)
# RNA: B3 RNA with A25U, A26C, U27C, U28A, G29C, C31U
# DNA 1: CAATCTGAATTCCGGTCTCCC
# DNA 2: TGGTGGCTACGACGGGATT
# B15: GAUAUCA (DNA:RNA)
# RNA: B3 RNA with A25G, U28A, G29U, A30C, C31A
# DNA 1: CAATCTGAATTCCGGTCTCCC
# DNA 2: TGGTGGCTACGACGGGATT
# B16: AAGUGGA (DNA:RNA)
# RNA: B3 RNA with U27G, A30G, C31A
# DNA 1: CAATCTGAATTCCGGTCTCCC
# DNA 2: TGGTGGCTACGACGGGATT
# B17: AGUAAUC (DNA:RNA)
# RNA: B3 RNA with A26G, U28A, G29A, A30U
# DNA 1: CAATCTGAATTCCGGTCTCCC
# DNA 2: TGGTGGCTACGACGGGATT
# B18: CCUUCCC (DNA:RNA)
# RNA: B3 RNA with A25C, A26C, G29C, A30C
# DNA 1: CAATCTGAATTCCGGTCTCCC
# DNA 2: TGGTGGCTACGACGGGATT
# B19: CGAGUGC (DNA:RNA)
# RNA: B3 RNA with A25C, A26G, U27A, U28G, G29U, A30G
# DNA 1: CAATCTGAATTCCGGTCTCCC
# DNA 2: TGGTGGCTACGACGGGATT
# B20: CGUGUUG (DNA:RNA)
# RNA: B1 RNA with C26G, G27U, C28G, A29U
# DNA 1: CAATCTGAATTCCGGTCTCCC
# DNA 2: TGGTGGCTACGACGGGATT
# Molecular target: T1, RBFOX1 RRM (Homo sapiens, UniProt Q9NWB1 109-208)
# T1 sequence: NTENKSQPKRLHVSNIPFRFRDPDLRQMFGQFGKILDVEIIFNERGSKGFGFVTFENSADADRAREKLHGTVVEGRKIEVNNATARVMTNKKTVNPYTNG
# Experiment: EMSA; HiTS-Eq, 1 nM pool, 10 min; buffer printed only for the single-RNA assays: 10 mM Tris pH 7.5, 150 mM NaCl, 3.4 mM EDTA, 0.001% NP-40, 30 C
# Conditions: tags: His6 N-terminal (pET28a); label: 5' 32P
# In short: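 These values rest on relative association constants, computed from read-count changes of each RNA species versus the control reaction and normalised to the cognate motif. Reads came from free RNA recovered by 8% native PAGE after purified RbFox RRM (wild type or mutant) at increasing concentrations was equilibrated for 10 min in 50 µL with 1 nM of a 5′-radiolabelled pool with 7 randomized nucleotides and DNA-annealed flanks.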
row,Binder,binding signal
1,B1,0.806 KA relative to UGCAUGU
2,B2,0.00637 KA relative to UGCAUGU
3,B3,0.00941 KA relative to UGCAUGU
4,B4,0.0134 KA relative to UGCAUGU
5,B5,0.0107 KA relative to UGCAUGU
6,B6,0.00679 KA relative to UGCAUGU
7,B7,0.0137 KA relative to UGCAUGU
8,B8,0.00178 KA relative to UGCAUGU
9,B9,0.0216 KA relative to UGCAUGU
10,B10,0.00458 KA relative to UGCAUGU
11,B11,0.0126 KA relative to UGCAUGU
12,B12,0.00943 KA relative to UGCAUGU
13,B13,0.0185 KA relative to UGCAUGU
14,B14,0.00266 KA relative to UGCAUGU
15,B15,0.00907 KA relative to UGCAUGU
16,B16,0.00304 KA relative to UGCAUGU
17,B17,0.00677 KA relative to UGCAUGU
18,B18,0.00395 KA relative to UGCAUGU
19,B19,0.0179 KA relative to UGCAUGU
20,B20,0.0111 KA relative to UGCAUGU

# From article PMC9911399, “Two distinct binding modes provide the RNA-binding protein RbFox with extraordinary sequence specificity”
